PubChem BioAssay AID1030 (National Center for Advancing Translational Sciences (NCATS), 2008)
Hit rate of the full screen: of about 220,000 compounds, about 16,000 (7.3%) were called active. The inconclusive results got no clear call from the source; some entries with a clear call stand among them for comparison. Calls follow the shape of the dose curve; as a rule, active = well fitted inhibition curve with a large enough effect (not every such curve was filed as active); inconclusive = small, poorly fitted or top-dose-only effect, or another doubt; inactive = no such curve, though single readings can be large or run the other way. No potency is given beside an inconclusive call; the fits are too rough.

The compounds below were run against Aldehyde dehydrogenase 1A1 (Homo sapiens) (UniProt P00352) (assay: qHTS Assay for Inhibitors of Aldehyde Dehydrogenase 1 (ALDH1A1)). Conditions: Purified ALDH1A1, NADH fluorescence, propionaldehyde substrate; series mostly up to 75.3 µM; activity, negative = inhibition: at the top concentration.
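For activity, negative = inhibition in this document: plate controls were no enzyme wells and a reference inhibitor.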
Potency is read from the fitted curve at half-maximal effect; tags tell the direction and shape of the fitted curve.

UniProt P00352, sequence (P00352 whole entry, looked up): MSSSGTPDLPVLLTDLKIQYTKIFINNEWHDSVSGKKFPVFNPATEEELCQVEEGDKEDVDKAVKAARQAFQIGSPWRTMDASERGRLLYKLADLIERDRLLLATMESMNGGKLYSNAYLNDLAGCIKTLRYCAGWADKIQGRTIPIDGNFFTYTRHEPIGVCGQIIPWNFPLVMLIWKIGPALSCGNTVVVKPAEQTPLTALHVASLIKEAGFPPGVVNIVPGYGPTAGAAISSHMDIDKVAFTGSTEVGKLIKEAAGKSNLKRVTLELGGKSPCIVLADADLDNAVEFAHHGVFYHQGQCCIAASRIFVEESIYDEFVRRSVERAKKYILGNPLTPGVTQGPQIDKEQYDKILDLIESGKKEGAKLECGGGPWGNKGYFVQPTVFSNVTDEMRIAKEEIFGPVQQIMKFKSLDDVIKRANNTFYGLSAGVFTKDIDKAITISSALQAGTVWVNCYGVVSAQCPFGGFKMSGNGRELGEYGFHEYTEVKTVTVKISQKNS

Row | SMILES | activity, negative = inhibition | Potency
1 | O=C(N/N=C/c1ccsc1)c1ccc2ccccc2n1 | inactive: -9.62% | –
2 | O=C(/C=C/c1ccccc1)N1CCN(c2ccc([N+](=O)[O-])c(N3CCOCC3)c2)CC1 | – | inconclusive [inhibitor, partial curve]
3 | Cc1nc(NC2CCCCC2)c2nc(-c3ccccc3)n(CCN(C)C)c2n1 | – | inconclusive [inhibitor, partial curve]
4 | COC(=O)C(C)n1cnc2c(nnn2Cc2ccc(Cl)cc2)c1=O (stereo unspecified) | inactive: -4.65% | –
5 | CC1(OC(=O)c2cnc3ccccc3n2)C(=O)C=C2C=C3CCCN3C=C2C1=O (stereo unspecified) | inactive: 0.286% [at 13.5 µM] | –
6 | CCN(c1ccccc1)S(=O)(=O)c1ccc2[nH]cc(C(=O)N3CCOCC3)c(=O)c2c1 | – | inconclusive [inhibitor, single point]
7 | CCCOn1c(OCC(C)C)nc2ccccc2c1=O | – | active: 22.4 µM
8 | COc1ccc(N=C2C(=O)N3CCCc4cccc2c43)cc1 | – | active: 0.0355 µM
9 | O=C1C2CC=CCC2C(=O)N1c1cccc(OS(=O)(=O)c2ccc3ccccc3c2)c1 (stereo unspecified) | – | inconclusive [inhibitor, partial curve]
10 | C/C(CC(=O)Nc1ccc2c(c1)OCCO2)=N\NC(=O)c1ccccn1 | – | inconclusive [inhibitor, single point]
11 | Cc1nn(-c2ccccc2)c2sc(C(=O)N3CCc4ccccc4C3)cc12 | – | inconclusive [inhibitor, single point]
12 | COc1cccc(NC(=O)COC(=O)c2nc(Cl)ccc2Cl)c1 | – | inconclusive [inhibitor, partial curve, poor fit]
13 | CC(=O)N(CC1CCCO1)c1nnc(-c2ccccn2)s1 (stereo unspecified) | – | inconclusive [inhibitor, single point]
14 | Clc1ccc(-c2nnc3sc(Cc4cccs4)nn23)c(Cl)c1 | – | inconclusive [inhibitor, single point]
15 | CCCC(C)c1nnc(NC(=O)CN2C(=O)c3ccccc3C2=O)s1 (stereo unspecified) | – | active: 28.2 µM
16 | COc1cc(NC(=O)c2cc3ccccc3o2)c(OC)cc1Br | – | inconclusive [inhibitor, single point]
17 | O=C(C1=C(O)C(=O)N(Cc2ccco2)C1c1cccs1)c1cccs1 (stereo unspecified) | – | inconclusive [inhibitor, single point]
18 | N/C(=N\OC(=O)Cc1ccc([N+](=O)[O-])cc1)c1ccccn1 | – | inconclusive [inhibitor, single point]
19 | CCOC(=O)C1(CC2CCCCO2)CCN(Cc2cn[nH]c2-c2cccc(F)c2)CC1 (stereo unspecified) | inactive: 0.878% | –
20 | CSc1nsc(SCc2cnc(C)nc2N)n1 | – | inconclusive [inhibitor, single point]
21 | CC1CCN(S(=O)(=O)c2ccc3c(c2)N(CC(=O)NCc2cccnc2)C(=O)CS3)CC1 | inactive: -5.14% | –
22 | FC(F)(F)c1ccccc1NC(=S)N1CCN(c2ncccn2)CC1 | inactive: 1.41% | –
23 | COc1ccc(-n2c(Cc3cccn3C)nnc2SCC(=O)Nc2ccccc2)cc1 | – | active: 14.1 µM
24 | N#Cc1c(Sc2ncc(C(F)(F)F)cc2Cl)nsc1C/C=N\OCc1c(F)cccc1Cl | – | inconclusive [inhibitor, single point]
25 | CSCCC(NS(=O)(=O)c1ccc2c(c1)oc(=O)n2C)C(=O)NC1CCC(C)CC1 (stereo unspecified) | – | inconclusive [inhibitor, partial curve]
26 | CCc1ccc(NC(=O)c2c(C(=O)Nc3ccccc3)sc3nc(C)cc(=O)n23)cc1 | – | active: 0.891 µM

Row | SMILES | activity, negative = inhibition | Potency
27 | COc1cccc(Nc2n[nH]c(=S)s2)c1 | – | active: 3.55 µM
28 | CSc1sccc1/C=N/O | – | inconclusive [inhibitor, single point]
29 | COc1ccc(-n2nnnc2SCC(=O)c2ccc3c(c2)OCCO3)c(OC)c1 | – | inconclusive [inhibitor, partial curve]
30 | Cc1ccc2c(c1)C(=O)c1ccccc1CS2=O (stereo unspecified) | – | active: 2.51 µM
31 | O=C(O)CCc1nn2c3ccccc3n(CC(=O)c3ccccc3)c2nc1=O | – | inconclusive [inhibitor, partial curve]
32 | Cc1nc2scc(-c3ccccc3)c2c(=O)n1N=C1C=CC(=O)C=C1 | – | inconclusive [inhibitor, single point]
33 | O=C(CO/N=C/c1ccccc1Cl)N1CCCc2ccccc21 | – | inconclusive [inhibitor, single point]
34 | CCn1nnnc1SCCSc1nnnn1CC | – | inconclusive [inhibitor, single point]
35 | COc1ccc(Cc2nnc(SCC(=O)NC(C)c3ccccc3)o2)cc1 (stereo unspecified) | – | inconclusive [inhibitor, single point]
36 | C1CC1Cc1noc(CN2CCN(C3C4CC5CC(C4)CC3C5)CC2)n1 (stereo unspecified) | inactive: -6.35% | –
37 | Cc1ccc(S(=O)(=O)N/N=C/c2cc(Br)ccc2O)cc1 | – | inconclusive [inhibitor, single point]
38 | CCOc1ccc(C(=O)Nc2nnc(NC(=S)Nc3ccccc3)s2)cc1 | – | active: 7.08 µM
39 | c1ccc(Cn2nnc(-c3ccccc3)n2)cc1 | inactive: 10.5% | –
40 | O=C(CCNS(=O)(=O)c1ccc(Br)s1)NCc1ccccc1 | inactive: -10.5% | –
41 | O=C(CCc1ccc(S(=O)(=O)NCc2ccccc2)cc1)NCc1ccco1 | – | inconclusive [inhibitor, full curve]
42 | O=C(COC(=O)c1cc(-c2cccs2)nc2ccccc12)NC1CCS(=O)(=O)C1 (stereo unspecified) | – | inconclusive [inhibitor, single point]
43 | Cc1ccc(C(=O)CSc2n[nH]c(-c3ccco3)n2)cc1C | – | inconclusive [inhibitor, single point]
44 | NNC(=S)Nc1ccccc1Cl | – | active: 28.2 µM
45 | Cc1nc(Nc2ccccc2)c2nc(-c3ccccc3)n(CCN3CCOCC3)c2n1 | – | inconclusive [inhibitor, partial curve]
46 | COc1ccc(S(=O)(=O)N2CCN(C(=S)NC3CCCCC3)CC2)cc1 | inactive: -6.99% | –
47 | CC(=O)Nc1cccc(-c2cnc3ccccc3n2)c1 | inactive: 3.58% | –
48 | COc1ccccc1NS(=O)(=O)c1cc(NC(=O)c2cc[n+]([O-])cc2)ccc1N1CCCC1 | – | active: 7.94 µM
49 | O=C(COC(=O)c1cnc(Cl)c(Cl)c1)NCc1ccco1 | – | active: 20 µM
50 | C=CCNC(=O)CSc1nnc(-c2ccccc2Cl)n1-c1c(C)n(C)n(-c2ccccc2)c1=O | inactive: 5.99% | –
51 | Cc1ccc(CNC(=O)CN(Cc2ccccc2)S(C)(=O)=O)cc1 | inactive: -2.39% | –
52 | Cc1cc(OCCOc2cccc3cccnc23)c(C)cc1Cl | – | inconclusive [inhibitor, single point]

Row | SMILES | activity, negative = inhibition | Potency
53 | Cc1ccc(CNC(=O)c2cnccn2)cc1 | inactive: 3.31% | –
54 | Cc1ccc(-c2noc(CCC(=O)N(C)c3ccccc3C)n2)cc1 | inactive: -4.07% | –
55 | COc1ccccc1C(c1nnnn1C(C)(C)C)N1CCN(Cc2ccccc2)CC1 (stereo unspecified) | – | active: 20 µM
56 | CC(=O)Nc1ccc(C(=O)c2ccccc2)cc1 | – | inconclusive [inhibitor, partial curve]
57 | Cc1nc2ccc(S(=O)(=O)Nc3ccc(-c4nc5cccnc5s4)cc3)cc2s1 | – | inconclusive [inhibitor, partial curve]
58 | Cn1c(COc2ccc(Cl)cc2)nnc1SCC(=O)Nc1ccc2c(c1)CCC2 | inactive: -3.51% | –
59 | COc1cc(-c2nnc3sc(-c4ccco4)nn23)cc(OC)c1OC | – | inconclusive [inhibitor, single point]
60 | CCC1=Nc2cc(C(=O)NCCCOC(C)C)ccc2Sc2ccccc21 | – | inconclusive [inhibitor, single point]
61 | CN(Cc1ccccc1)C(=O)CC(c1ccccc1)c1cc(Cl)ccc1O (stereo unspecified) | inactive: -8.19% | –
62 | O=C(Nc1ccc2c(c1)OCO2)C(c1ccccc1)N1CCCCC1 (stereo unspecified) | – | inconclusive [inhibitor, single point]
63 | NC1CCN(O)C1=O (stereo unspecified) | inactive: -6.54% | –
64 | OCCC1CN(Cc2cccc(O)c2)CCN1CCc1ccccc1 (stereo unspecified) | inactive: 14.4% | –
65 | CCSc1oc(-c2ccco2)nc1S(=O)(=O)c1ccc(F)cc1 | – | active: 25.1 µM
66 | Cc1c(Cl)c(=O)oc2cc(OCC(=O)NCc3cccs3)ccc12 | – | inconclusive [inhibitor, partial curve]
67 | Clc1ccccc1-c1nccc(NCCN2CCOCC2)n1 | – | inconclusive [inhibitor, single point]
68 | CN(NS(=O)(=O)c1ccc(Cl)cc1)c1ncc(C(F)(F)F)cc1Cl | – | inconclusive [inhibitor, single point]
69 | c1ccc2c(c1)ncn2-c1ncnc2sc3c(c12)CCCC3 | – | inconclusive [inhibitor, single point]
70 | O=C(Cc1ccccc1)NCc1n[nH]c(=S)n1-c1ccc(Br)cc1 | inactive: 1.99% | –
71 | Cc1cccn2cc(-c3cc4ccccc4oc3=O)nc12 | – | inconclusive [inhibitor, single point]
72 | CS(=O)(=O)Nc1cccc(-c2cncnc2NCc2cccnc2)c1 | – | inconclusive [inhibitor, single point]
73 | O=C(NNc1ncnc2c1cnn2-c1ccccc1)c1cccs1 | – | inconclusive [inhibitor, single point]
74 | CCCCn1c(=O)[nH]c(=O)c2c1nc(-c1ccc3ccccc3c1)n2CC | – | inconclusive [inhibitor, partial curve]
75 | COc1ccc(CCNC(=S)Nc2ccc(OC)cc2)cc1 | – | inconclusive [inhibitor, partial curve]
76 | CCCCCOC(=O)C(C)c1c(C)[nH]c(=S)[nH]c1=O (stereo unspecified) | inactive: 2.55% | –
